# The campaign covered roughly 360,000 compounds. About 17,000 (4.7%) were called active. The shares of active, inactive and inconclusive entries below differ from those in the screen. Rule as the data show it: active = activity change below about -50%; inconclusive = mostly about -30% to -49%; inactive = weaker than that.
# Test: qHTS for Inhibitors of Inflammasome Signaling: IL-1-beta AlphaLISA Primary Screen
# Conditions: THP-1 LPS/ATP IL-1B secretion, 16 h; at 57.5 µM, stronger effect = lower value
# Outline: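 THP-1 cells pretreated 1 hr with compounds (up to 57.5 uM final), then stimulated with LPS (250 ng/mL final) plus ATP (1.25 mM final); secreted IL-1B measured by AlphaLISA after 16 hr, decreased signal indicating inhibition.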
# % is scaled to controls: 0 for no effect and ±100 for the full control effect.
row,SMILES,activity change
1,CC1CCN(CCNC(=S)Nc2ccc(Cl)cc2)CC1,inconclusive: -37.8%
2,NC(=O)c1cc(S(=O)(=O)N2CCCC2)ccc1OCc1ccc(F)cc1,inconclusive: -46.9%
3,CCCCCCCCN1C(=O)[C@H](CC(=O)NCc2cccc3ccccc23)C[C@@]2(C(=O)OCC)CCC=C12,inconclusive: -43.3%
4,CCC[C@@H](CN1CCC[C@H]1CN1C(N)=NC[C@@H]1Cc1ccccc1)N1C[C@@H](Cc2ccccc2)N(CCCC2CCCC2)C1=N,active: -83.5%
5,Cc1sc2ncnc(N3CCC(C(=O)N(C)CC(=O)Nc4ccccc4Br)CC3)c2c1C,inconclusive: -37.6%
6,CCOc1ccccc1N1CCN(C2=C(NS(=O)(=O)c3cccs3)C(=O)c3ccccc3C2=O)CC1,inactive: -29%
7,Cc1sc2nc(CN3CCOCC3)nc(Oc3ccc(NC(=O)c4ccco4)cc3)c2c1C,inconclusive: -37.8%
8,O=C1CCC(C(=O)N2CCCO2)CN1Cc1cccc(C(F)(F)F)c1 (stereo not given),inactive: -2.42%
9,O=C(CSc1ccccc1F)NC(=O)NCc1ccco1,inconclusive: -38.3%
10,CN(CC(=O)Nc1ccccc1Cl)C(=O)c1ccc(N2CCCCCC2)c([N+](=O)[O-])c1,inconclusive: -47.3%
11,O=C(c1ccco1)N1CCn2cccc2C1c1ccccc1 (stereo not given),inconclusive: -39.3%
12,Cc1cccc(NC(=S)NCCSc2ccc(Cl)cc2)c1,active: -105%
13,O=C(NCCOc1ccccc1)C1Nc2ccc(C(F)(F)F)cc2C2c3ccccc3CC12 (stereo not given),active: -74%
14,Cc1ccc(Nc2nc(N)nc(CSc3nc4ccccc4s3)n2)cc1,active: -70.4%
15,Cc1ccc(-c2c[n+](CC(=O)c3ccc(Br)cc3)c3n2CCCCC3)cc1,active: -94.7%
16,COc1cccc(OC)c1C(=O)Nc1ccc2c(c1)N(S(=O)(=O)c1cccs1)CCC2,inconclusive: -30.4%
17,O=C(NCCCc1ccccc1)c1ccc(CS(=O)Cc2ccccc2Cl)o1 (stereo not given),inconclusive: -49.1%
18,Cc1nnc(SCC(=O)N2N=C(c3ccc(Cl)cc3)CC2c2ccco2)[nH]c1=O (stereo not given),inconclusive: -41.9%
19,Nc1ccc2c(c1)C(=Cc1cccnc1)c1ccccc1-2,inconclusive: -41.9%
20,CCN(C(=O)COC(=O)c1c2c(nc3ccccc13)CCC2)c1c(N)n(Cc2ccccc2)c(=O)[nH]c1=O,inconclusive: -35.9%
21,Cc1ccc(NC(=O)NCCN2CCN(c3ccccc3)CC2)cc1Cl,inconclusive: -36.4%
22,CCOC(=O)C1(C)/C(=N/Nc2ccc(Cl)cc2)C(=O)C(=O)N1c1ccccc1 (stereo not given),inactive: 27.6%

row,SMILES,activity change
1,COC1=C(Nc2ccccc2)C(=O)c2ccccc2C1=O,inconclusive: -48.1%
2,O=C(Nc1ccc(F)cc1)c1cccc2c1C(=O)N(Cc1ccccn1)C2,inconclusive: -41%
3,Cc1ccc(N(CCC#N)C(=O)CCl)cc1C,active: -97.9%
4,O=[N+]([O-])c1c(Nc2ccccn2)cc(Cl)c2nonc12,active: -101%
5,COc1ccc(OCC(O)Cn2c(=N)n(CCN3CCCCC3)c3ccccc32)cc1 (stereo not given),active: -57.5%
6,CC[n+]1c(C)n(-c2ccccc2)c2ccc(C(=O)OC)cc21,inactive: 2.37%
7,CCn1c(SCC(=O)Nc2nc(C)c(C)s2)nnc1-c1ccco1,inconclusive: -31.9%
8,O=C(COc1ccc(Cl)cc1)NCCCNC(=O)c1cccnc1,inactive: 27%
9,CCOC(=O)c1sc2nc(C)nc(NCCc3ccccn3)c2c1C,active: -54.7%
10,N#Cc1ccc(/C=C/C(=O)c2cccnc2)cc1,inconclusive: -48.9%
11,CC(=O)c1ccc(NS(=O)(=O)c2cc3c(cc2C)N(C)CCO3)cc1,inactive: 38.2%
12,Cc1ccc2nc(SCC(=O)Nc3ccc(Br)cc3)nc(=O)n2c1,inconclusive: -35%
13,Cc1c(C(=O)OCC(=O)N(C)Cc2ccccc2)oc2ccccc12,inconclusive: -41.6%
14,CS(=O)(=O)c1ncc(Cl)c(C(=O)Nc2ccc3ccccc3c2)n1,active: -99.1%
15,COc1ccc(OC)c(-n2c(CNC3CCN(Cc4ccccc4)CC3)nc3ccccc3c2=O)c1,inconclusive: -49.7%
16,COC(=O)CSc1ncnc2c1sc1nc3c(cc12)COC(C)(C)C3,inactive: -8.36%
17,CC(Cc1ccccc1)NC(=O)c1cc([N+](=O)[O-])ccc1Cl (stereo not given),inconclusive: -31.1%
18,COc1ccc(-c2noc(-c3cc(C)cc(C)c3)n2)cc1OC,inconclusive: -31.8%
19,COc1ccc(Cc2nnc(SCc3ccc([N+](=O)[O-])cc3)o2)cc1,inconclusive: -41.1%
20,CCCCc1cc(=O)oc2cc(C)cc(OCC(=O)NCc3ccncc3)c12,inconclusive: -31.7%
21,O=C1C(Cl)=C(NCCc2ccccc2)C(=O)c2ccccc21,inconclusive: -36.6%
22,CCCCNc1nc2cccnc2s1,inconclusive: -32.3%

row,SMILES,activity change
1,COc1ccc(/C=C(\C#N)c2nc3ccccc3[nH]2)cc1O,inconclusive: -40.3%
2,CCOC(=O)CC(=O)CSc1ccc2nnc(-c3cccc(F)c3)n2n1,inconclusive: -36.7%
3,CCCCNC(=O)c1cc2c(=O)n3cccc(C)c3nc2n(Cc2ccccc2)c1=N,inactive: 3.58%
4,COc1ccc(Cn2c(CCC(=O)Nc3ccc(C)c(C)c3)nc3cccnc32)cc1,inconclusive: -38.2%
5,CCOc1ccc(CCN2C(=O)C(=O)N([C@@H](Cc3ccccc3)CN3CCC[C@H]3CN3C(=O)C(=O)NC[C@@H]3Cc3ccccc3)C[C@@H]2Cc2ccccc2)cc1,inconclusive: -37.2%
6,CCCCOC(=O)n1c(=S)oc2cc(Cl)ccc21,inconclusive: -32.4%
7,CCCCn1nnnc1C(CCc1ccccc1)N1CCN(C/C=C/c2ccccc2)CC1 (stereo not given),inconclusive: -46%
8,COc1ccc(NC(=O)c2cccnc2SC)cc1OC,inconclusive: -36.2%
9,COc1ccc(C(CNC(=O)c2cccc(S(=O)(=O)N3CCCCC3)c2)N2CCCC2)cc1 (stereo not given),inconclusive: -42.6%
10,Cc1cccc(C)c1NC(=O)/C(C#N)=C/c1ccc(-c2ccc(C(=O)O)cc2)o1,inactive: 4.69%
11,O=C(N[C@H]1CC[C@H](CC(=O)N2CCCCC2)O[C@@H]1CO)c1cccc(F)c1,inactive: 34.1%
12,COc1cc(OC)c(NC(=O)N2CCOCC2)cc1Cl,inactive: -14.2%
13,C[C@H](CO)N1C[C@H](C)[C@@H](CN(C)S(=O)(=O)c2ccc(F)cc2)Oc2c(NC(=O)CCC(F)(F)F)cccc2C1=O,inconclusive: -41.1%
14,O=C(NCC1CCCO1)c1ccc([N+](=O)[O-])o1 (stereo not given),inconclusive: -49.1%
15,O=C(CSc1ncc(C(F)(F)F)cc1Cl)N1CCN(S(=O)(=O)c2ccc(Cl)cc2)CC1,inconclusive: -47.7%
16,O=C(Nc1cccc(NC(=O)c2ccc(Cl)cc2Cl)c1)c1cccnc1,active: -53.9%
17,O=C(N/N=C/c1ccccn1)c1cccc([N+](=O)[O-])c1,active: -95.7%
18,N#CCCN(C(=O)COC(=O)C1=NNC(=O)CC1)c1ccccc1,inactive: 36.1%
19,CC1CCN(C(=O)c2ccc(COc3ccccc3Cl)o2)CC1,inconclusive: -31.8%
20,O=C(CC1SCCNC1=O)Nc1ccc(F)c(Cl)c1 (stereo not given),inconclusive: -38%
21,Cc1cc(Cl)ccc1OCC(=O)N1CCCN(C(=O)COc2ccc(Cl)cc2C)CC1,inconclusive: -31.8%
22,CCN(CC)CCN(Cc1cc2ccc(C)cc2[nH]c1=O)C(=O)NC1CCCCC1,inconclusive: -39.4%

row,SMILES,activity change
1,COc1ccc(NC(=O)CCNC(=O)C2CCN(S(=O)(=O)c3ccccc3)CC2)cc1OC,inactive: 16.8%
2,CC(C)(C)c1ccccc1OCC(=O)Nc1ccccc1C(=O)NCc1cccnc1,active: -89.9%
3,O=C(CCN1C(=O)/C(=C\c2ccccc2)SC1=S)NNC(=O)c1ccccc1O,inactive: 38.1%
4,Cc1cc(NCCCN(C)C)n2nc(-c3cccs3)cc2n1,active: -109%
5,CCOC(=O)N1CCC(N2C(=O)c3ccccc3C2Nc2cc(OC)c(OC)c(OC)c2)CC1 (stereo not given),inactive: -19%
6,O=C(C1=C[C@@H](c2ccc(Br)cc2)C[C@@H](OCc2ccc(CO)cc2)O1)N1CCN(Cc2ccccc2)CC1,inconclusive: -40.8%
7,CCOC(=O)C1CCN(C(=O)CCc2c(C)nc3c(-c4ccc(F)cc4)c(C)nn3c2C)CC1,inactive: 8.96%
8,COc1ccc([C@H]2CC(=O)C=C(/C=C/c3ccccc3)C2)cc1OC,inconclusive: -33.4%
9,CCOC(=O)c1c(NC(=O)CSc2nnc(-c3cccc(C)c3)n2CC)sc(C(C)=O)c1C,inconclusive: -46%
10,O=C(N/N=C/c1ccccn1)c1ccc(Br)cc1,active: -105%
11,CC(C)CC(=O)N1CCC(O)(CS(=O)(=O)Cc2ccc(Cl)cc2)CC1,inactive: -0.665%
12,O=C(NCc1ccc(F)cc1)c1cc(C2CCCCN2C(=O)CCCc2ccccc2)on1 (stereo not given),inconclusive: -34.1%
13,CN(C)CC1CCCCC1OC(=O)/C=C/c1ccccc1 (stereo not given),inconclusive: -44.1%
14,Cc1ccc2c(c1)S/C(=C/c1ccc[n+](C)c1)N2CCO,inconclusive: -50%
15,Cc1cc(NCCCn2ccnc2)n2ncc(-c3ccc(Cl)cc3)c2n1,inconclusive: -34.2%
16,Cc1ccc(NS(=O)(=O)N2CCCCC2)cc1,inactive: 14.9%
17,NC(Cc1ccc(Cl)cc1)c1csc(Nc2ccc(S(N)(=O)=O)cc2)n1 (stereo not given),inconclusive: -36.1%
18,COCC(C)n1c(C)cc(C(=O)COC(=O)c2cccn2C)c1C (stereo not given),inconclusive: -45.2%
19,Cc1ccc(Nc2nc(N)nc(CN3CCN(Cc4ccc5c(c4)OCO5)CC3)n2)cc1,inconclusive: -42.6%
